A word on the IC50: it is the concentration needed to halve the response being measured.

This experiment concerns sodium channel site 2. Particulars: rat forebrain membranes, [3H]batrachotoxinin 5 nM, 37° C. 60 min; read-out: IC50 binding to sodium channel site 2 in competition with [3H]batrachotoxinin.
Consider “3-(2,6-Dimethylphenoxy)-N-(3-(trifluoromethyl)benzyl)propan-1-amine [Compound 533]”, for which the IC50 was found to be 468 nM.

Take “3-((3-(2,6-Dimethylphenoxy)propylamino)methyl)benzonitrile [Compound 524]”: the IC50 turned out to be 535 nM.

With `Cc1cccc(C)c1OCCCNCc1cc(Cl)c(O)c(Cl)c1` [Compound 504, 2,6-Dichloro-4-((3-(2,6-dimethylphenoxy)propylamino)methyl)phenol], the IC50 was greater than 900 nM.

In the case of `Cc1cccc(C)c1OCCCNCc1ccccc1` [Compound 518, N-Benzyl-3-(2,6-dimethylphenoxy)propan-1-amine], the IC50 amounted to 404 nM.

For the compound `Cc1cccc(C)c1OCCCNCc1ccc(C#N)cc1` [Compound 519, 4-((3-(2,6-Dimethylphenoxy)propylamino)methyl)benzonitrile], the IC50 came to 680 nM.

In the case of `COc1ccc(CNCCCOc2c(C)cccc2C)cc1` [Compound 520, 3-(2,6-Dimethylphenoxy)-N-(4-methoxybenzyl)propan-1-amine], the IC50 worked out at 438 nM.

Consider `Cc1cccc(C)c1OCCCNCc1ccc(F)cc1` [Compound 521, 3-(2,6-Dimethylphenoxy)-N-(4-fluorobenzyl)propan-1-amine], for which the IC50 stood at 570 nM.

`Cc1cccc(C)c1OCCCNCc1ccc(-c2ccccc2)cc1` [Compound 522, N-(Biphenyl-4-ylmethyl)-3-(2,6-dimethylphenoxy)propan-1-amine]: the IC50 is less than 300 nM.

With `Cc1cccc(C)c1OCCCNCc1ccccn1` [Compound 523, 3-(2,6-Dimethylphenoxy)-N-(pyridin-2-ylmethyl)propan-1-amine], the IC50 turned out to be 2060 nM.

Take `COc1cccc(CNCCCOc2c(C)cccc2C)c1` [Compound 525, 3-(2,6-Dimethylphenoxy)-N-(3-methoxybenzyl)propan-1-amine]: the IC50 was 340 nM.

Regarding `Cc1cccc(C)c1OCCCNCc1ccc(C(F)(F)F)cc1` [Compound 526], the IC50 was 375 nM.

Consider `Cc1cccc(C)c1OCCCNCc1cccnc1` [Compound 528, 3-(2,6-Dimethylphenoxy)-N-(pyridin-3-ylmethyl)propan-1-amine], for which the IC50 is greater than 900 nM.

On to `COc1ccccc1CNCCCOc1c(C)cccc1C` [Compound 530, 3-(2,6-Dimethylphenoxy)-N-(2-methoxybenzyl)propan-1-amine], for which the IC50 was greater than 900 nM.

Regarding `Cc1cccc(C)c1OCCCNCc1ccc(OC(F)(F)F)cc1` [Compound 531, 3-(2,6-Dimethylphenoxy)-N-(4-(trifluoromethoxy)benzyl)propan-1-amine], the IC50 stood at 359 nM.

`Cc1cccc(C)c1OCCCNCc1ccc(S(N)(=O)=O)cc1` [Compound 532, 4-((3-(2,6-Dimethylphenoxy)propylamino)methyl)benzenesulfonamide]: the IC50 was greater than 900 nM.

Turning to `Cc1cccc(C)c1OCCCNCc1ccccc1C(F)(F)F` [Compound 534, 3-(2,6-Dimethylphenoxy)-N-(2-(trifluoromethyl)benzyl)propan-1-amine], the IC50 was determined as 444 nM.

As for `Cc1cccc(C)c1OCCCNCc1cccc(-c2ccccc2)c1` [Compound 535, N-(Biphenyl-3-ylmethyl)-3-(2,6-dimethylphenoxy)propan-1-amine], the IC50 stood at 159 nM.

As for `Cc1cccc(C)c1OCCCNCc1ccccc1-c1ccccc1` [Compound 536, N-(Biphenyl-2-ylmethyl)-3-(2,6-dimethylphenoxy)propan-1-amine], the IC50 came out at 200 nM.

For `Cc1cccc(C)c1OCCCNCc1noc(C(C)C)n1` [Compound 538, 3-(2,6-Dimethylphenoxy)-N-((5-isopropyl-1,2,4-oxadiazol-3-yl)methyl)propan-1-amine], the IC50 was greater than 900 nM.

With `Cc1cccc(C)c1OCCCNCc1nn(Cc2ccccc2)c2ccccc12` [Compound 540, N-((1-Benzyl-1H-indazol-3-yl)methyl)-3-(2,6-dimethylphenoxy)propan-1-amine], the IC50 was determined as 140 nM.

Consider `CC(=O)Nc1ccc(CNCCCOc2c(C)cccc2C)cc1` [Compound 542, N-(4-((3-(2,6-Dimethylphenoxy)propylamino)methyl)phenyl)acetamide], for which the IC50 is greater than 900 nM.

On to `Cc1cccc(C)c1OCCCNCc1ccc(O)cc1` [Compound 550, 4-((3-(2,6-Dimethylphenoxy)propylamino)methyl)phenol], for which the IC50 turned out to be 1190 nM.

On to `Cc1cccc(C)c1OCCCNCc1ccccc1F` [Compound 551, 3-(2,6-Dimethylphenoxy)-N-(2-fluorobenzyl)propan-1-amine], for which the concentration for half-maximal inhibition (IC50) was determined as 793 nM.

As for `Cc1cccc(C)c1OCCCNCc1cccc(F)c1` [Compound 552, 3-(2,6-Dimethylphenoxy)-N-(3-fluorobenzyl)propan-1-amine], the IC50 worked out at 733 nM.

Take `Cc1cccc(C)c1OCCCNC(C)c1ccccc1` (stereo not shown) [Compound 553, 3-(2,6-Dimethylphenoxy)-N-(1-phenylethyl)propan-1-amine]: the IC50 is 530 nM.

The values are drawn from patent publication US10577308B2, “Sodium channel modulators” (The Florey Institute of Neuroscience and Mental Health, priority 2015, dated 2020).
